{
  "source": "the supplement of paper PMC11417369",
  "note": "± gives the standard deviation of the averaged measurements. Some of the results follow.",
  "data": [
    {"system": "PfAP2-LT AP2 domain (GST-tagged)", "experiment": "gcPBM binding intensity (ln(normalized median fluorescence intensity)); higher = stronger DNA binding", "summary_of_the_method": "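Probes on an Agilent 4 × 180k array were primer-extended, double-stranded and 36 bp long, taken from intergenic genomic regions, with negative controls added. GST-tagged P. falciparum DNA-binding domains from E. coli, about 25 μg on average, were applied to the array for 1 h in 1× PBS containing 1% milk, 0.2 mg/ml BSA, 0.5% salmon testes DNA and 0.03% Triton X-100. Binding intensity, obtained after Alexa488 anti-GST antibody detection and a 488 nm scan, is the highest Masliner-normalised natural-log median intensity across replicate spots of either probe orientation.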", "values": [
      {"sequence": "AAGAAAATAAAAAATAAGCATAATATGATATGATAT [TGCATGCA_negctrl_site196]", "gcPBM binding intensity (ln)": "8.94 ± 0.46"},
      {"sequence": "TTTCTTTATAAATTAATATTCACAACACAAAATATA [CACACA_negctrl_site450]", "gcPBM binding intensity (ln)": "8.24 ± 0.47"},
      {"sequence": "AAAAATTTGGCATACACACACACACCGACACAGACA [CACACA_site4489]", "gcPBM binding intensity (ln)": "10 ± 0.23"},
      {"sequence": "GTGCATATAAGGAAGTGTACGAAAAAAAATATTCCA [XGTACX_site8490]", "gcPBM binding intensity (ln)": "8.89 ± 0.42"},
      {"sequence": "CAAATATGTCTTATTCGTACACATATATATATATAT [XGTACX_site8817]", "gcPBM binding intensity (ln)": "9.45 ± 0.31"},
      {"sequence": "TCTTTTAGTTTTATCCACATAATAAAAAGCAAAAAA [GTGCAC_negctrl_site368]", "gcPBM binding intensity (ln)": "8.25 ± 0.55"},
      {"sequence": "AAAAAAAAAAAAATAGGTACGTAAATATTTCTTTAA [XGTACX_site6423]", "gcPBM binding intensity (ln)": "8.47 ± 0.66"},
      {"sequence": "TATTCTTCAATTTAAAGTACAAAAATTACTATACTT [XGTACX_site6599]", "gcPBM binding intensity (ln)": "8.31 ± 0.4"},
      {"sequence": "AAAAAAAAAAAAAAGAGTACTTTTTTCTCATTACTA [XGTACX_site8353]", "gcPBM binding intensity (ln)": "8.54 ± 0.32"},
      {"sequence": "ATTGTGGCAATATATTGTACATGTAATATAAATATA [XGTACX_site5415]", "gcPBM binding intensity (ln)": "8.88 ± 0.47"},
      {"sequence": "AATTAAAATATATATATACACACGTAATTATATATA [CACACA_site3819]", "gcPBM binding intensity (ln)": "8.74 ± 0.36"},
      {"sequence": "TATAATTATATTTGGAGTACAAATTTTTTTTTTTTT [XGTACX_site7494]", "gcPBM binding intensity (ln)": "8.29 ± 0.46"},
      {"sequence": "AAAAAAAAAGGTAACGCATGCTTTTAGATTATATTA [TGCATGCA_site398]", "gcPBM binding intensity (ln)": "8.55 ± 0.45"},
      {"sequence": "AAGTATGCTTGCTACTTATTAAGTGGCAATATAATT [XGTACX_negctrl_site74]", "gcPBM binding intensity (ln)": "8.58 ± 0.33"},
      {"sequence": "TTTGTATAGTTGTAGGTGCATATCATTTTTAAATGT [GTGCAC_site9708]", "gcPBM binding intensity (ln)": "8.78 ± 0.4"},
      {"sequence": "TGTTAATAAAGGTGTACACAAAATAAAAAAAATTAT [CACACA_site4288]", "gcPBM binding intensity (ln)": "8.97 ± 0.58"},
      {"sequence": "TAACACTTATAAAAAAGTACTGATGAAATAATACTA [XGTACX_site7305]", "gcPBM binding intensity (ln)": "8.54 ± 0.45"},
      {"sequence": "AAATATATATGAAGATGTACATATATATATGTAAAT [XGTACX_site4039]", "gcPBM binding intensity (ln)": "9.06 ± 0.38"},
      {"sequence": "AAAAATTCCAGACACACACACACATATAAATAAATA [CACACA_site1232]", "gcPBM binding intensity (ln)": "9.96 ± 0.28"},
      {"sequence": "AGAACCATATATAAATGTACATGTTAATATGAATAA [XGTACX_site130]", "gcPBM binding intensity (ln)": "8.93 ± 0.42"},
      {"sequence": "GGACAAAAAAAAAAAATAAAATAAAAATAAATAAAT [XGTACX_negctrl_site106]", "gcPBM binding intensity (ln)": "8.69 ± 0.67"},
      {"sequence": "ATAACAAAATAAAACACACACACAAATGTACATATA [CACACA_site2425]", "gcPBM binding intensity (ln)": "9.85 ± 0.28"},
      {"sequence": "AAATAAATAATTTAATGTACATATATAATATATATA [XGTACX_site1831]", "gcPBM binding intensity (ln)": "8.62 ± 0.47"},
      {"sequence": "CATATACACCAACACACACACACACCCACAAAAAAA [CACACA_site496]", "gcPBM binding intensity (ln)": "10.1 ± 0.27"},
      {"sequence": "AATAAAAAAATAGAAACACACATTAAAAAAAATAAA [CACACA_site1333]", "gcPBM binding intensity (ln)": "8.94 ± 0.46"},
      {"sequence": "ATGATATATAGACACACACACATATTTATATACATT [CACACA_site6404]", "gcPBM binding intensity (ln)": "9.78 ± 0.37"},
      {"sequence": "CTTTTTAATAAATATACACACACAAAAAAAAAAAAA [CACACA_site9316]", "gcPBM binding intensity (ln)": "9.02 ± 0.4"},
      {"sequence": "TATTCAAAGAAAGACAGTACGTGTAGCAAACAACCT [XGTACX_site4218]", "gcPBM binding intensity (ln)": "9.11 ± 0.33"},
      {"sequence": "ACTTACTAATTAATGGGTACATACACACATATATAC [XGTACX_site1362]", "gcPBM binding intensity (ln)": "9.28 ± 0.45"},
      {"sequence": "CACTTTATACGTAATTGTACTTTTTCTTTTTTTTAT [XGTACX_site3175]", "gcPBM binding intensity (ln)": "8.88 ± 0.44"},
      {"sequence": "TAAATAAAGTATAATGCATGCTATTATAATATTAAT [TGCATGCA_site825]", "gcPBM binding intensity (ln)": "8.84 ± 0.48"},
      {"sequence": "AAATAAAATAAAATAAAATAAAATTCTTTGATACCT [TGCATGCA_negctrl_site604]", "gcPBM binding intensity (ln)": "8.57 ± 0.42"},
      {"sequence": "ATTTTTTTTTTTTTTTTTTTTTTTTAGATTAAGAAA [CACACA_negctrl_site1272]", "gcPBM binding intensity (ln)": "8.07 ± 0.47"},
      {"sequence": "TATAATTATTTTTTTCTAAATATTATAAGGTATTCA [GTGCAC_negctrl_site205]", "gcPBM binding intensity (ln)": "8.19 ± 0.5"},
      {"sequence": "TACATATAATATATTGCACACGTCAGAATAATATAG [CACACA_site1744]", "gcPBM binding intensity (ln)": "9.03 ± 0.41"},
      {"sequence": "TTTCTTTCTTCACATATATATATATATATATTTATA [TGCATGCA_negctrl_site341]", "gcPBM binding intensity (ln)": "8.92 ± 0.41"},
      {"sequence": "TAATAGAATATGATGGTGCAGCAGTCTTATTTTTCA", "gcPBM binding intensity (ln)": "8.9 ± 0.42"},
      {"sequence": "TTTTATAATATTTAAAGTACATTCTAAAAATATAAT [XGTACX_site8033]", "gcPBM binding intensity (ln)": "8.19 ± 0.36"},
      {"sequence": "TTAGCCATTAATTCTCTACACACCTTTATGTTATTT [CACACA_site9212]", "gcPBM binding intensity (ln)": "9.01 ± 0.45"},
      {"sequence": "AAAAAGAATGTGAACACACACATTGAATCTAATTTA [CACACA_site6711]", "gcPBM binding intensity (ln)": "9.13 ± 0.4"},
      {"sequence": "TATTAAACGAAACACACACACACACCCATATATAAA [CACACA_site759]", "gcPBM binding intensity (ln)": "10.23 ± 0.099"},
      {"sequence": "GATAATTATGGACACACACACACACCCACAACTAAA [CACACA_site8824]", "gcPBM binding intensity (ln)": "10.2 ± 0.35"},
      {"sequence": "AGATGATATATTATATATCCTTTTAATAAATGTAAT [CACACA_negctrl_site730]", "gcPBM binding intensity (ln)": "8.39 ± 0.44"},
      {"sequence": "TATATAAAAAATTCAATACACACCATATATAAATAT [CACACA_site3987]", "gcPBM binding intensity (ln)": "8.93 ± 0.38"},
      {"sequence": "ACATATAATATATATATATATATATATATATATAAT [GTGCAC_negctrl_site648]", "gcPBM binding intensity (ln)": "9.28 ± 0.12"},
      {"sequence": "TATTCTAATTTTTAAACACACAAATATAAATAAGTA [CACACA_site3149]", "gcPBM binding intensity (ln)": "8.48 ± 0.45"},
      {"sequence": "TATTCATATTTAAAGGTGCAATATTTATTTTGTACA", "gcPBM binding intensity (ln)": "8.49 ± 0.45"},
      {"sequence": "CTATTTATTATATATACATGCATATATATATTAATA [TGCATGCA_site527]", "gcPBM binding intensity (ln)": "8.59 ± 0.4"},
      {"sequence": "TAAAAATGTGTATGTACACACTTTATTTTTAATACA [CACACA_site7235]", "gcPBM binding intensity (ln)": "9.09 ± 0.3"},
      {"sequence": "TGTACAAATATGTTGAAAATAAAATTTCAATATATT [XGTACX_negctrl_site13]", "gcPBM binding intensity (ln)": "8.53 ± 0.53"},
      {"sequence": "ATACGAATAAATTTCGCATGCAGCATATATATCAAT [TGCATGCA_site612]", "gcPBM binding intensity (ln)": "8.9 ± 0.23"},
      {"sequence": "AACGAAAATAAGAAAAGTACAAAAAATACCAAATAA [XGTACX_site6171]", "gcPBM binding intensity (ln)": "9.02 ± 0.52"},
      {"sequence": "TTAATACATACATTCACACACACTAATTGTATATTT [CACACA_site9362]", "gcPBM binding intensity (ln)": "9.38 ± 0.42"},
      {"sequence": "ATATATATATATAATACACACTTATGAAATGTCTAA [CACACA_site5077]", "gcPBM binding intensity (ln)": "8.91 ± 0.39"},
      {"sequence": "TTCTTTTTTCGACACACACACACAAGAAGATATATA [CACACA_site7456]", "gcPBM binding intensity (ln)": "9.51 ± 0.3"},
      {"sequence": "ATATTTTTAGATTCAGAAAAAAGATTCAACTTACTC [CACACA_negctrl_site1357]", "gcPBM binding intensity (ln)": "8.29 ± 0.42"}
    ]}
  ]
}
